The first series is described as follows: Lipophilicity, log D of compound at pH 7.5 by HPLC analysis. As to conditions: buffer.
Turning to `Cc1c(-c2ccccc2)nc2ccc(Br)cc2c1C(=O)NCC(C(=O)O)c1ccccc1Cl` (stereo in doubt; 31), the logD came to 1.9.
Same read-out and setting: with `Cc1c(-c2ccccc2)nc2ccc(Br)cc2c1C(=O)NCCc1ccccn1` the figure was 2.7; with `Cc1c(N2CCCCCC2)nc2ccc(Br)cc2c1C(=O)NCC(CCC(=O)O)c1ccccc1Cl` (single isomer, unassigned; (+)), 2.9; with `Cc1c(N2CCCCC2)nc2ccc(Br)cc2c1C(=O)NCC(CCC(=O)O)c1ccccc1Cl` (stereo in doubt; 48), 2.6.
Same read-out and setting: with `COc1ccccc1C(C)CNC(=O)c1c(C)c(-c2ccccc2)nc2ccc(Br)cc12` (single isomer, unassigned; (+)) the figure was 4.3; with `Cc1c(-c2ccccc2)nc2ccc(Br)cc2c1CNc1ccc(C(=O)O)cc1F`, 2.3.
On the same count and under the same terms, with `Cc1c(-c2ccccc2)cc2ccc(Br)cc2c1C(=O)Nc1ccc(C(=O)O)cc1F` the figure was 2.3; with `Cc1c(N2CCCCC2)nc2ccc(Br)cc2c1C(=O)NCC(CCC(=O)O)c1c(F)ccc(F)c1Cl` (single isomer, unassigned; (+)), 2.7; with `Cc1c(-c2ccccc2)nc2ccc(Br)cc2c1C(=O)NC(C)Cc1ccccn1` (racemic), 2.9.

A further series in a line: physchem.
Settings: not given
Regarding `COc1ccccc1C(C)CNC(=O)c1c(C)c(-c2ccccc2)nc2ccc(Br)cc12` (single isomer, unassigned; (-)), the solubility was < 0.1 µg/mL.

A further series in a line: Induction of CYP3A4 mRNA expression in human hepatocytes supplemented with fresh medium containing compounds daily for 2 days measured 24 hrs post last dose by qRT-PCR analysis. The note with it: 72 h. In general terms: In qPCR the cycle at which signal appears reflects the starting amount.
Molecule `Cc1c(N2CCCCC2)nc2ccc(Br)cc2c1C(=O)NCC(CCC(=O)O)c1c(F)ccc(F)c1Cl` (single isomer, unassigned; (-)) came in with an NOAEL of 600 nM.

The logD is the decadic logarithm of the distribution of all forms, ionised or not, between an organic phase and buffer at a given pH. Low readings indicate lower lipophilicity, high ones higher lipophilicity. What is called solubility is the concentration that dissolves in the medium under given conditions. Low readings indicate little dissolved substance, high ones much dissolved substance. The NOAEL is the highest dose or exposure tested at which no adverse effect was seen.

Values taken from ChEMBL document CHEMBL4665834 (J Med Chem, 2020).
